Reference: publication PMC4336329 (PLoS ONE, 2015)
The campaign covered roughly 310,000 compounds. About 14,000 (4.5%) showed an effect of 50% or more. Effects have a minus sign here. This is one part of the list.

These molecules were tested against human ether-à-go-go-related gene (hERG) potassium channel (human, UniProt Q12809) (assay: primary screen, population patch clamp on CHO cells stably expressing hERG).
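Also: peak tail current of the secondary pulse compared with the same well before compound.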

human ether-à-go-go-related gene (hERG) potassium channel, sequence (Q12809 whole entry, looked up): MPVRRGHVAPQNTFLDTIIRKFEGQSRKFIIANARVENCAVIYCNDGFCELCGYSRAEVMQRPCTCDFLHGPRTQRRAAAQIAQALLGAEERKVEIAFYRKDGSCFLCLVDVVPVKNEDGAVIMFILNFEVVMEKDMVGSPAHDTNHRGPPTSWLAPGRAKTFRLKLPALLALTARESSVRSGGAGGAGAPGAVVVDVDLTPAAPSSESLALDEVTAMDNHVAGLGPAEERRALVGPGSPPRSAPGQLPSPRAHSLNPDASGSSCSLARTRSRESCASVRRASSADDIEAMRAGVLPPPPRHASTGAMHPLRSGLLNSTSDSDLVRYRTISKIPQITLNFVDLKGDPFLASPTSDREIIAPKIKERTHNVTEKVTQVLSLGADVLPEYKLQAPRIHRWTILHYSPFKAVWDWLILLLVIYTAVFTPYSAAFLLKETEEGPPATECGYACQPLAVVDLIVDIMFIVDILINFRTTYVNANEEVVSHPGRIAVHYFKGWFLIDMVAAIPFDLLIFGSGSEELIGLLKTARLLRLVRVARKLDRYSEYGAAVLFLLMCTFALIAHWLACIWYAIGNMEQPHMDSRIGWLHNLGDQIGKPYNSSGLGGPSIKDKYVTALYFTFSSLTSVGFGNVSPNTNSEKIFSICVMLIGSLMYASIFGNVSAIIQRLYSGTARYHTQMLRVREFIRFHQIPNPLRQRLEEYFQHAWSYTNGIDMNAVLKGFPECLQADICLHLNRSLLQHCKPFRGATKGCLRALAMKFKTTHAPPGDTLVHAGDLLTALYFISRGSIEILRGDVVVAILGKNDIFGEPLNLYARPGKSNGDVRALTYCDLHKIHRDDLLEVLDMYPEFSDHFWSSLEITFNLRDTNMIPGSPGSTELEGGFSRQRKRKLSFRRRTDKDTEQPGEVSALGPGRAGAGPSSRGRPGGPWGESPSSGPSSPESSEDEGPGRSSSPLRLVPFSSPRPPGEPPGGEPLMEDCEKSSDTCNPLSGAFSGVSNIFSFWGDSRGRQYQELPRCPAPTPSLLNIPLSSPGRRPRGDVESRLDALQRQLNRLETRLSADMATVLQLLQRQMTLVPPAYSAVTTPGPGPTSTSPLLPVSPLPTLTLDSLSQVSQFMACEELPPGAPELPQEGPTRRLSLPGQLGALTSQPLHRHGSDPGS

Compound	hERG current change (%, negative = inhibition) at 10uM
Cc1ccc(-c2csc3nnc(SCC(=O)N4CCN(Cc5ccccc5)CC4)n23)cc1	-55.3%
CN(C)CCCN(C(=O)c1ccc(S(=O)(=O)N(C)C2CCCCC2)cc1)c1nc2ccc(F)cc2s1.Cl	-71.9%
O=C(CC1SC(=Nc2ccccc2)N(CCc2c[nH]c3ccccc23)C1=O)Nc1ccccc1F (centres unmarked)	11.7%
CCOc1ccccc1N1CCN(CC(O)COCc2cccs2)CC1 (centres unmarked)	-32.1%
Cc1cc(C)c(C#N)c(Sc2nnnn2-c2ccccc2)n1	-3.72%
CCOC(=O)c1ccc(NC(=O)CSc2nnc(NC(=O)c3ccc(S(=O)(=O)N4CCOCC4)cc3)s2)cc1	-1.05%
Cc1ccc(OCCCC(=O)Nc2ccc(N3CCOCC3)cc2)cc1	20.7%
O=C(c1ccc([N+](=O)[O-])cc1)N1CCN(Cc2ccccc2)CC1	-66.4%
CCOc1ccc(-c2nnc3ccc(SCC(=O)N4CCCCC4)nn23)cc1	-5.88%
CC(=O)c1c(C)[nH]c(C(=O)NCCN2CCC(C)CC2)c1C	-0.0448%
O=C(C1CCN(S(=O)(=O)c2cnc[nH]2)CC1)N1CCc2ccccc2C1	13.1%
Cc1cc(NC(=O)CCC(=O)N(Cc2ccco2)C2(C(=O)NC3CCCCC3)CCN(C)CC2)no1	1.56%
COc1ccc(C2=NN(c3nc(C)cc(C)n3)C(=O)C2)cc1	-0.463%
OC1(c2cccc(C(F)(F)F)c2)CCN(Cc2nc(-c3cnccn3)no2)CC1	-0.399%
O=C(NCc1ccccc1Cl)C1CCC(=O)N(CC2CCCCC2)C1 (centres unmarked)	-2.61%
COc1ccc(/C=N/NC(=O)C2C(=O)NCC2c2ccccc2)c(OC)c1 (centres unmarked)	13.2%
COCCn1c(SCC(=O)NC2CC2)nnc1-c1ccco1	3.05%
CCOC(=O)C1=C(C)Nc2nnnn2C1c1ccc(OC)c(Br)c1 (centres unmarked)	3.26%
CCn1ccnc1[C@@H]1C[C@H]2CN(Cc3cccc(Cl)c3)C(=O)[C@]23CCCN13	-39.3%

Compound	hERG current change (%, negative = inhibition) at 10uM
CCOc1ccc(N2C(=O)/C(=C/c3ccc(C)o3)C(=O)NC2=S)cc1	21.5%
Fc1ccc(-n2nnc(-c3ccnc4ccccc34)n2)cc1	-1.35%
Cc1ccc2nc3ccc(N4CCN(C)CC4)nn3c(=O)c2c1	-33.9%
Cc1cc(C)nc(NC(=NCCc2c[nH]c3ccccc23)NC(=O)Nc2ccccc2)n1	2.01%
CCS(=O)(=O)c1ccc(-c2cccc(NC(=O)c3ccc(Br)o3)c2)nn1	-31.1%
Brc1ccc(-c2nc(-c3ccncc3)no2)cc1	15.8%
Cc1cc(C)nc(NC(=O)CCN2C(=O)c3ccccc3S2(=O)=O)n1	-5.11%
CC(=O)Nc1ccc(-c2nnc(SCc3ccccc3C#N)n2C)cc1	-6.67%
CCOc1ccc2nc(SCC(=O)NCc3ccccc3OC)[nH]c2c1	-6.24%
Nc1cc(C(=O)OCC(=O)c2ccc(CC(=O)N3CCOCC3)s2)ccc1Cl	-27.8%
CCN(C(=O)CSc1nc2cc(Cl)ccc2c(=O)n1CC(C)C)C1CCS(=O)(=O)C1 (centres unmarked)	2.51%
Cc1cc(C)nc(NS(=O)(=O)c2ccc(NC(=S)NC(=O)C3CCCC3)cc2)n1	-5.83%
COc1cc(OC)cc(C(=O)OCCCOC(=O)c2cc(OC)cc(OC)c2)c1	24.6%
CN1CCN(/N=C/c2c[nH]c3ccccc23)CC1	14.5%
NC(=O)N/N=C/CCc1ccccc1	14%
CC(C)C(NC(=O)c1ccco1)C(=O)OCC(=O)c1ccccc1 (centres unmarked)	16.2%
CCN(CC(=O)Nc1c(F)cccc1F)C(=O)CSCC(=O)Nc1ccc(OC)cc1	-3.35%
COc1ccccc1CNC(=O)COc1ccc(S(=O)(=O)N2CCOCC2)cc1	-14.5%
O=c1[nH]c2ccccc2nc1C(Nc1ccccc1)c1ccccc1 (centres unmarked)	-0.607%

Compound	hERG current change (%, negative = inhibition) at 10uM
Cc1ccccc1C(=O)Nc1cc(S(=O)(=O)N2CCOCC2)ccc1N1CCN(C)CC1	-17.4%
CCOC(=O)c1c(NC(=O)Cn2c(C)nc3ccccc32)sc2c1CCC2	-0.987%
O=C(CCNS(=O)(=O)c1ccc(Br)s1)NCc1ccccc1Cl	-3.77%
O=C(O)CCN1C(=O)c2ccccc2Sc2ncccc21	12.9%
O=C(Cc1csc(NC(=O)Nc2cccc(Cl)c2)n1)NC1CCCC1	16.4%
CC(=O)Nc1ccc(S(=O)(=O)N2CCN(S(=O)(=O)N3CCCCCC3)CC2)cc1	8.41%
Cn1c(NC(=O)c2ccccc2)cc(=O)n(C)c1=O	-8.17%
Cc1ccc(SCCC(=O)NCC2CCCO2)cc1 (centres unmarked)	22.4%
CCOC(=O)c1nc(C)c(C(C)=O)s1	14.8%
COc1ccc(C(=O)N/N=C/c2cccnc2)cc1	13.1%
Cc1c(C(=O)O)oc2ccc(S(=O)(=O)NCc3ccc4c(c3)OCO4)cc12	11.4%
Cc1ccc(NS(=O)(=O)c2ccc(N3C(=O)CCC3=O)cc2)cc1	-11.5%
Cc1ccc(C(=O)OCc2cc3ccccc3[nH]c2=O)cc1	13.3%
Cc1cc(=O)n2nc(N3CCCC(C(=O)Nc4ccc(C)c(C)c4)C3)sc2n1 (centres unmarked)	-48.2%
COc1ccc(NC(=O)c2sccc2OS(=O)(=O)N(C)C)cc1	11.2%
CC(C)CN1CCNC(=O)C1CC(=O)NCCc1ccc(C(F)(F)F)cc1 (centres unmarked)	0.053%
N#Cc1cnn(-c2ccccc2)c1NC(=O)CN1CCN(c2ccccc2)CC1	-5.56%
CCOc1ccc(C(=O)NCCc2ccc3c(c2)OCCO3)cc1	-5.27%
